According to a collection of fitness landscapes (doi:10.1016/j.celrep.2020.107928):
The full ranking holds about 81,000 sequences; the median of “one-hybrid fitness for binding parS DNA” is about -0.17, and the highest 2% start at about 0.51. The list shows a part of the results.

B1: Caulobacter ParB omega fusion; a variant is named by its letters at X, in order, B8GW30 (parent)
chain: MESVVVGEPGMSEGRRGLGRGLSALLGEVDAAPAQAPGEQLGGSREAPIEILQRNPDQPRRTFREEDLEDLSNSIREKGVLQPILVRPSPDTAGEYQIVAGERAWRAAQRAGLKTVPIMVRELDDLAVLEIGIIENVQRADLNVLEEALSYKVLMEKFERTQENIAQTIGKSXSHVANXMRLLXLPDEVQSYLVSGELTAXHARAIAAAADPVALAKQIIEGGLSVRETEALARKAPNLSAGKSKGGRPPRVKDTDTQALESDLSSVLGLDVSIDHRGSTGTLTITYATLEQLDDLCNRLTRGI

Variants of: B1
Experiment: one-hybrid fitness for binding parS DNA (scaled: cognate 1, non-cognate 0); higher = stronger binding
Details: with parS DNA site
Outline: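 Fitness is the rescaled log change in variant-to-wild-type read ratio, measured by Illumina sequencing of plasmids before and after bacterial one-hybrid selection. The scale puts cognate at 1 and non-cognate at 0. Selection of Caulobacter ParB libraries, four specificity codons randomised, took place in E. coli USO with a HIS3 reporter, site 19 bp from the promoter, over 48 hours at 37°C on M9-minus-histidine with 0.1 mM IPTG and 5 mM 3-AT.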

Row | Variant | one-hybrid fitness for binding parS DNA
1 | KYTR | ≤ 0.2
2 | IIVH | ≤ 0.2
3 | TIPG | ≤ 0.2
4 | CAVT | ≤ 0.2
5 | NYEG | ≤ 0.2
6 | KCPR | ≤ 0.2
7 | VWSD | ≤ 0.2
8 | KASL | ≤ 0.2
9 | LNPP | ≤ 0.2
10 | WYLT | ≤ 0.2
11 | CSTE | ≤ 0.2
12 | SSLD | ≤ 0.2
13 | SYRP | ≤ 0.2
14 | YRRL | ≤ 0.2
15 | VTAI | ≤ 0.2
16 | QRWH | ≤ 0.2
17 | AYVY | ≤ 0.2
18 | YNHS | ≤ 0.2
19 | AWTT | ≤ 0.2
20 | DCNG | ≤ 0.2
21 | NHSA | ≤ 0.2
22 | STVW | ≤ 0.2
23 | SCRE | ≤ 0.2
24 | LESY | ≤ 0.2

Row | Variant | one-hybrid fitness for binding parS DNA
25 | WVAT | ≤ 0.2
26 | HPWP | ≤ 0.2
27 | ENRT | ≤ 0.2
28 | FNIS | ≤ 0.2
29 | HLYG | ≤ 0.2
30 | SSRK | ≤ 0.2
31 | TLEC | ≤ 0.2
32 | HTYT | ≤ 0.2
33 | QEDW | ≤ 0.2
34 | QINA | ≤ 0.2
35 | QRTV | ≤ 0.2
36 | YLAC | ≤ 0.2
37 | ATVL | ≤ 0.2
38 | AVAC | ≤ 0.2
39 | DLAM | ≤ 0.2
40 | LFNS | ≤ 0.2
41 | NDEG | ≤ 0.2
42 | LWAS | ≤ 0.2
43 | QHGT | ≤ 0.2
44 | CRRG | ≤ 0.2
45 | RLFG | 0.991
46 | YKWR | ≤ 0.2
47 | RTKW | 0.668
48 | ILPT | ≤ 0.2

Row | Variant | one-hybrid fitness for binding parS DNA
49 | QSIV | ≤ 0.2
50 | RQRA | 0.632
51 | CWQR | ≤ 0.2
52 | GLDS | ≤ 0.2
53 | PYKF | ≤ 0.2
54 | TDRP | ≤ 0.2
55 | STDM | ≤ 0.2
56 | MITR | ≤ 0.2
57 | ARTF | ≤ 0.2
58 | KSNF | ≤ 0.2
59 | KQTS | ≤ 0.2
60 | QCPY | ≤ 0.2
61 | RMMV | ≤ 0.2
62 | GRTR | ≤ 0.2
63 | SGLH | ≤ 0.2
64 | QTRY | ≤ 0.2
65 | PREC | ≤ 0.2
66 | EPVC | ≤ 0.2
67 | PCTL | ≤ 0.2
68 | PYKA | ≤ 0.2
69 | LGGR | ≤ 0.2
70 | PTHE | ≤ 0.2
71 | MTSL | ≤ 0.2
72 | DTTD | ≤ 0.2

Row | Variant | one-hybrid fitness for binding parS DNA
73 | NQLN | ≤ 0.2
74 | LYLV | ≤ 0.2
75 | GWDC | ≤ 0.2
76 | ELEC | ≤ 0.2
77 | PSAV | ≤ 0.2
78 | ALCA | ≤ 0.2
79 | LPYM | ≤ 0.2
80 | QRPD | ≤ 0.2
81 | VPTV | ≤ 0.2
82 | VYML | ≤ 0.2
83 | NRAF | ≤ 0.2
84 | TQTC | ≤ 0.2
85 | DSMA | ≤ 0.2
86 | ALDG | ≤ 0.2
87 | RHNA | 0.543
88 | PRWN | ≤ 0.2
89 | RFAK | ≤ 0.2
90 | MRDC | ≤ 0.2
91 | QRVM | ≤ 0.2
92 | METF | ≤ 0.2
93 | MGLT | ≤ 0.2
94 | YMQR | ≤ 0.2
95 | TMPN | ≤ 0.2
96 | VRGK | ≤ 0.2

Row | Variant | one-hybrid fitness for binding parS DNA
97 | VDID | ≤ 0.2
98 | YRAT | ≤ 0.2
99 | EIKM | ≤ 0.2
100 | RNGE | ≤ 0.2
101 | DDTF | ≤ 0.2
102 | YNWT | ≤ 0.2
103 | LCVL | ≤ 0.2
104 | HERG | ≤ 0.2
105 | TQAE | ≤ 0.2
106 | PVDR | ≤ 0.2
107 | WKLC | ≤ 0.2
108 | LPLQ | ≤ 0.2
109 | RIAG | 0.997
110 | WSDF | ≤ 0.2
111 | HHAL | ≤ 0.2
112 | RPGP | ≤ 0.2
113 | HRID | ≤ 0.2
114 | THCI | ≤ 0.2
115 | WMGR | ≤ 0.2
116 | LQEI | ≤ 0.2
117 | NFRS | ≤ 0.2
118 | HMMK | ≤ 0.2
119 | DISI | ≤ 0.2
120 | IVWC | ≤ 0.2

Row | Variant | one-hybrid fitness for binding parS DNA
121 | QVNH | ≤ 0.2
122 | IVLW | ≤ 0.2
123 | KFRE | ≤ 0.2
124 | CCER | ≤ 0.2
125 | LLKE | ≤ 0.2
126 | SLTQ | ≤ 0.2
127 | LATV | ≤ 0.2
128 | NVIC | ≤ 0.2
129 | VTGV | ≤ 0.2
130 | RWEL | ≤ 0.2
131 | WFTC | ≤ 0.2
132 | TWDF | ≤ 0.2
133 | IMTW | ≤ 0.2
134 | TMHM | ≤ 0.2
135 | QKNQ | ≤ 0.2
136 | IMKS | ≤ 0.2
137 | HAVW | ≤ 0.2
138 | CFLS | ≤ 0.2
139 | GMYS | ≤ 0.2
140 | LCMV | ≤ 0.2
141 | TALT | ≤ 0.2
142 | MTTC | ≤ 0.2
143 | KHVR | ≤ 0.2
144 | CDSC | ≤ 0.2

Row | Variant | one-hybrid fitness for binding parS DNA
145 | KHPI | ≤ 0.2
146 | ETNQ | ≤ 0.2
147 | TDTM | ≤ 0.2
148 | TCYR | ≤ 0.2
149 | HFAG | ≤ 0.2
150 | QDVI | ≤ 0.2
151 | NPEG | ≤ 0.2
152 | CYDR | ≤ 0.2
153 | LESW | ≤ 0.2
154 | QSAF | ≤ 0.2
155 | IQLP | ≤ 0.2
156 | MESK | ≤ 0.2
157 | MLCM | ≤ 0.2
158 | PPMV | ≤ 0.2
159 | MYEG | ≤ 0.2
160 | DQHS | ≤ 0.2
161 | CFQG | ≤ 0.2
162 | AAAG | ≤ 0.2
163 | CFNE | ≤ 0.2
164 | YHLC | ≤ 0.2
165 | LSWN | ≤ 0.2
166 | WGAA | ≤ 0.2
167 | KQWR | ≤ 0.2
168 | DGSD | ≤ 0.2

Row | Variant | one-hybrid fitness for binding parS DNA
169 | KTFV | ≤ 0.2
170 | QGVM | ≤ 0.2
171 | VNAN | ≤ 0.2
172 | IAYG | ≤ 0.2
173 | DCIM | ≤ 0.2
174 | QVVY | ≤ 0.2
175 | GQFC | ≤ 0.2
176 | THNI | ≤ 0.2
177 | GELK | ≤ 0.2
178 | QNAR | ≤ 0.2
179 | LMSF | ≤ 0.2
180 | SIML | ≤ 0.2
181 | IPDY | ≤ 0.2
182 | LTFV | ≤ 0.2
183 | VDDL | ≤ 0.2
184 | NATY | ≤ 0.2
185 | TQVV | ≤ 0.2
186 | RWNQ | ≤ 0.2
187 | TCAW | ≤ 0.2
188 | SYLA | ≤ 0.2
189 | PYTG | ≤ 0.2
190 | HFNS | ≤ 0.2
191 | RCEE | ≤ 0.2
192 | QGMG | ≤ 0.2

Row | Variant | one-hybrid fitness for binding parS DNA
193 | WGRS | ≤ 0.2
194 | GVDV | ≤ 0.2
195 | CHWG | ≤ 0.2
196 | TDTL | ≤ 0.2
197 | RTAE | ≤ 0.2
198 | DCSG | ≤ 0.2
199 | KDNS | ≤ 0.2
200 | VMPL | ≤ 0.2
201 | SSCC | ≤ 0.2
202 | RSYW | ≤ 0.2
203 | ENKG | ≤ 0.2
204 | STMD | ≤ 0.2
205 | IGKY | ≤ 0.2
206 | FQVR | ≤ 0.2
207 | ARQY | ≤ 0.2
208 | HALG | ≤ 0.2
209 | LPVA | ≤ 0.2
210 | NLTY | ≤ 0.2
211 | LHPQ | ≤ 0.2
212 | IFTF | ≤ 0.2
213 | WPMG | ≤ 0.2
214 | SKGG | ≤ 0.2
215 | YIHK | ≤ 0.2
216 | QVMR | ≤ 0.2

Row | Variant | one-hybrid fitness for binding parS DNA
217 | PRTW | ≤ 0.2
218 | RREP | ≤ 0.2
219 | GRYS | ≤ 0.2
220 | VPNP | ≤ 0.2
221 | RMIE | ≤ 0.2
222 | RRSM | 0.364
223 | KCNS | ≤ 0.2
224 | AAAF | ≤ 0.2
225 | HPDL | ≤ 0.2
226 | DHQG | ≤ 0.2
227 | RNSV | ≤ 0.2
228 | VMQK | ≤ 0.2
229 | FFSS | ≤ 0.2
230 | STAT | ≤ 0.2
231 | NGWS | ≤ 0.2
232 | NEAS | ≤ 0.2
233 | SCPR | ≤ 0.2
234 | CVFC | ≤ 0.2
235 | QVTW | ≤ 0.2
236 | IMEG | ≤ 0.2
237 | KMSY | ≤ 0.2
238 | LLMM | ≤ 0.2
239 | FGWS | ≤ 0.2
240 | YPFR | ≤ 0.2

Row | Variant | one-hybrid fitness for binding parS DNA
241 | LGDS | ≤ 0.2
242 | LSFP | ≤ 0.2
243 | VPDG | ≤ 0.2
244 | VMCT | ≤ 0.2
245 | CDED | ≤ 0.2
246 | FQPY | ≤ 0.2
247 | KKQS | ≤ 0.2
248 | ITSF | ≤ 0.2
249 | FNRT | ≤ 0.2
250 | LWPE | ≤ 0.2
251 | NIVC | ≤ 0.2
252 | HWNS | ≤ 0.2
253 | TNSG | ≤ 0.2
254 | TFLW | ≤ 0.2
255 | KCEY | ≤ 0.2
256 | DQQR | ≤ 0.2
257 | TTWL | ≤ 0.2
258 | CPHR | ≤ 0.2
259 | GPMC | ≤ 0.2
260 | HFAF | ≤ 0.2
261 | YKLA | ≤ 0.2
262 | LCCM | ≤ 0.2
263 | RTIH | ≤ 0.2
264 | TWHS | ≤ 0.2

Row | Variant | one-hybrid fitness for binding parS DNA
265 | LPRI | ≤ 0.2
266 | RYTR | ≤ 0.2
267 | EHSR | ≤ 0.2
268 | HGQG | ≤ 0.2
269 | VNMC | ≤ 0.2
270 | HRRF | ≤ 0.2
271 | KMPV | ≤ 0.2
272 | PTWR | ≤ 0.2
273 | AMVR | ≤ 0.2
274 | LSVM | ≤ 0.2
275 | HGRC | ≤ 0.2
276 | KRRF | ≤ 0.2
277 | WCSR | ≤ 0.2
278 | AYGD | ≤ 0.2
279 | TESN | ≤ 0.2
280 | VAEV | ≤ 0.2
281 | DECT | ≤ 0.2
282 | RAEF | ≤ 0.2
283 | LKLW | ≤ 0.2
284 | SAHF | ≤ 0.2
285 | PMTP | ≤ 0.2
286 | VVMG | ≤ 0.2
287 | TRNC | ≤ 0.2
288 | DGRA | ≤ 0.2

Row | Variant | one-hybrid fitness for binding parS DNA
289 | MMFL | ≤ 0.2
290 | THAF | ≤ 0.2
291 | RAIG | 0.871
292 | CPPE | ≤ 0.2
293 | WLLT | ≤ 0.2
294 | CKTY | ≤ 0.2
295 | WRWR | ≤ 0.2
296 | IHDT | ≤ 0.2
297 | PFTE | ≤ 0.2
298 | RGVA | ≤ 0.2
299 | PCYW | ≤ 0.2
300 | STLL | ≤ 0.2
301 | LIRK | ≤ 0.2
302 | MGKF | ≤ 0.2
303 | SWRH | ≤ 0.2
304 | PFQV | ≤ 0.2
305 | PLDV | ≤ 0.2
306 | PPAV | ≤ 0.2
